From a collection of fitness landscapes (doi:10.1126/science.1257360)
The other results are listed elsewhere or left out.

B1: PhoQ; a variant is named by its letters at X, in order, P23837 (parent)
chain: MKKLLRLFFPLSLRVRFLLATAAVVLVLSLAYGMVALIGYSVSFDKTTFRLLRGESNLFYTLAKWENNKLHVELPENIDKQSPTMTLIYDENGQLLWAQRDVPWLMKMIQPDWLKSNGFHEIEADVNDTSLLLSGDHSIQQQLQEVREDDDDAEMTHSVAVNVYPATSRMPKLTIVVVDTIPVELKSSYMVWSWFIYVLSANLLLVIPLLWVAAWWSLRPIEALAKEVRELEEHNRELLNPATTRELTSLVRNLNRLLKSERERYDKYRTTLTDLTHSLKTPLXXLQXXLRSLRSEKMSVSDAEPVMLEQISRISQQIGYYLHRASMRGGTLLSRELHPVAPLLDNLTSALNKVYQRKGVNISLDISPEISFVGEQNDFVEVMGNVLDNACKYCLEFVEISARQTDEHLYIVVEDDGPGIPLSKREVIFDRGQRVDTLRPGQGVGLAVAREITEQYEGKIVAGESMLGGARMEVIFGRQHSAPKDE

Variants of: B1
Assay: enrichment ratio after two sorts for PhoP signalling (ratio (wild type AVST 3.29)); higher = more functional
Conditions: with PhoP (E. coli)

| Variant | enrichment ratio |
| --- | --- |
| LSQN | ≤ 0.25 |
| GETI | 11.6 |
| VGSR | ≤ 0.25 |
| QHKY | ≤ 0.25 |
| MVCD | ≤ 0.25 |
| ANKS | ≤ 0.25 |
| PEDQ | ≤ 0.25 |
| TGTV | 10.2 |
| RDEN | ≤ 0.25 |
| RPIF | ≤ 0.25 |
| MQMA | ≤ 0.25 |
| ERIM | ≤ 0.25 |
| TWKG | ≤ 0.25 |
| GMWF | ≤ 0.25 |
| TMGE | 14.8 |
| GHSQ | ≤ 0.25 |
| NAPQ | ≤ 0.25 |
| ANCL | 21.8 |
| MLAW | ≤ 0.25 |
| IESY | ≤ 0.25 |
| YYNY | 0.699 |
| SYTW | ≤ 0.25 |
| NQMI | ≤ 0.25 |
| NSDV | ≤ 0.25 |
| TEGE | 0.253 |

| Variant | enrichment ratio |
| --- | --- |
| STSM | 16.4 |
| TVRA | ≤ 0.25 |
| EKAL | ≤ 0.25 |
| TSYK | ≤ 0.25 |
| DIVP | ≤ 0.25 |
| LFCN | ≤ 0.25 |
| IQCA | ≤ 0.25 |
| HPIG | ≤ 0.25 |
| RWNS | ≤ 0.25 |
| SQLY | 5.01 |
| INVA | ≤ 0.25 |
| GMYW | ≤ 0.25 |
| EYLV | ≤ 0.25 |
| LAVW | ≤ 0.25 |
| RPRR | ≤ 0.25 |
| FVCK | ≤ 0.25 |
| MHQD | ≤ 0.25 |
| RRII | ≤ 0.25 |
| HHFN | ≤ 0.25 |
| PKIG | ≤ 0.25 |
| QNGF | ≤ 0.25 |
| MMFR | ≤ 0.25 |
| EGRL | ≤ 0.25 |
| LVKF | ≤ 0.25 |
| PHDK | ≤ 0.25 |

| Variant | enrichment ratio |
| --- | --- |
| VQMA | ≤ 0.25 |
| YKHT | ≤ 0.25 |
| HESL | ≤ 0.25 |
| YSLV | 8.32 |
| GQCH | 1.9 |
| RTGL | ≤ 0.25 |
| YTHV | ≤ 0.25 |
| MVEG | ≤ 0.25 |
| FQIR | ≤ 0.25 |
| IHVD | ≤ 0.25 |
| SCGM | 9.65 |
| VFWD | ≤ 0.25 |
| EFTG | ≤ 0.25 |
| GPLS | ≤ 0.25 |
| MFHM | ≤ 0.25 |
| IIGM | ≤ 0.25 |
| QGCP | ≤ 0.25 |
| NCPG | ≤ 0.25 |
| ARDH | ≤ 0.25 |
| QVWS | ≤ 0.25 |
| NYER | ≤ 0.25 |
| KSLI | ≤ 0.25 |
| SCCF | 13.7 |
| MTAI | 17.8 |
| QDRC | ≤ 0.25 |

| Variant | enrichment ratio |
| --- | --- |
| VNYI | ≤ 0.25 |
| SKTW | ≤ 0.25 |
| VCLM | 4.34 |
| PFTY | ≤ 0.25 |
| VQVE | ≤ 0.25 |
| DYEL | ≤ 0.25 |
| RWFT | ≤ 0.25 |
| ISDA | ≤ 0.25 |
| LIGP | ≤ 0.25 |
| HYRH | ≤ 0.25 |
| TWYR | ≤ 0.25 |
| YFVY | ≤ 0.25 |
| TFTQ | 1.63 |
| RLYR | ≤ 0.25 |
| ATAV | 2.86 |
| EIDF | ≤ 0.25 |
| MAYL | 9.09 |
| MLHK | ≤ 0.25 |
| IFQQ | ≤ 0.25 |
| FAHE | ≤ 0.25 |
| RYHQ | ≤ 0.25 |
| QTRC | ≤ 0.25 |
| KCET | ≤ 0.25 |
| YVRN | ≤ 0.25 |
| QLMD | ≤ 0.25 |

| Variant | enrichment ratio |
| --- | --- |
| LQKD | ≤ 0.25 |
| TWIE | ≤ 0.25 |
| RLNK | ≤ 0.25 |
| LYLV | ≤ 0.25 |
| KRMP | ≤ 0.25 |
| AMFG | ≤ 0.25 |
| DDLQ | ≤ 0.25 |
| GRGV | ≤ 0.25 |
| QQHN | ≤ 0.25 |
| EFVQ | ≤ 0.25 |
| PSCA | ≤ 0.25 |
| IITK | ≤ 0.25 |
| TYPR | ≤ 0.25 |
| GRSH | ≤ 0.25 |
| SYSP | ≤ 0.25 |
| MFTL | ≤ 0.25 |
| KWID | ≤ 0.25 |
| DQSI | ≤ 0.25 |
| NTRM | ≤ 0.25 |
| ICEG | ≤ 0.25 |
| AVHP | ≤ 0.25 |
| AKHY | ≤ 0.25 |
| CLCN | 23.2 |
| FVNV | ≤ 0.25 |
| HIPS | ≤ 0.25 |

| Variant | enrichment ratio |
| --- | --- |
| QSDV | 8.35 |
| DQGY | ≤ 0.25 |
| PGFN | ≤ 0.25 |
| WEHW | ≤ 0.25 |
| DMWD | ≤ 0.25 |
| NHVQ | ≤ 0.25 |
| CITL | ≤ 0.25 |
| TTVK | ≤ 0.25 |
| KQER | ≤ 0.25 |
| FHTN | ≤ 0.25 |
| KPSE | ≤ 0.25 |
| ADSF | ≤ 0.25 |
| RHEQ | ≤ 0.25 |
| LMYN | ≤ 0.25 |
| PHML | ≤ 0.25 |
| YRMA | ≤ 0.25 |
| FVQS | ≤ 0.25 |
| FVWL | ≤ 0.25 |
| TSWK | ≤ 0.25 |
| VIIN | ≤ 0.25 |
| DASF | ≤ 0.25 |
| FWEI | ≤ 0.25 |
| GPFC | ≤ 0.25 |
| TWKY | ≤ 0.25 |
| NIKG | ≤ 0.25 |

| Variant | enrichment ratio |
| --- | --- |
| ANLY | 12 |
| SRKA | ≤ 0.25 |
| NQTW | ≤ 0.25 |
| QVQR | ≤ 0.25 |
| MNIC | ≤ 0.25 |
| FMMQ | ≤ 0.25 |
| YHSF | ≤ 0.25 |
| WNKT | ≤ 0.25 |
| WEPP | ≤ 0.25 |
| YVYS | ≤ 0.25 |
| DRRV | ≤ 0.25 |
| GFPF | ≤ 0.25 |
| QCWL | 13.1 |
| NDHG | ≤ 0.25 |
| ARGW | ≤ 0.25 |
| VLMH | ≤ 0.25 |
| TTNR | ≤ 0.25 |
| WTML | ≤ 0.25 |
| WPHP | ≤ 0.25 |
| YRRK | ≤ 0.25 |
| RHAS | ≤ 0.25 |
| FLLE | 0.647 |
| GMWI | ≤ 0.25 |
| VSRW | ≤ 0.25 |
| LYYP | ≤ 0.25 |

| Variant | enrichment ratio |
| --- | --- |
| QWLV | ≤ 0.25 |
| SWAD | ≤ 0.25 |
| KPLV | ≤ 0.25 |
| GSRH | ≤ 0.25 |
| PTSV | ≤ 0.25 |
| ITFA | ≤ 0.25 |
| RQEV | ≤ 0.25 |
| RACG | ≤ 0.25 |
| NIRV | ≤ 0.25 |
| YVFT | ≤ 0.25 |
| WMCK | ≤ 0.25 |
| TSRH | ≤ 0.25 |
| LWDI | ≤ 0.25 |
| QNMT | ≤ 0.25 |
| HVCI | ≤ 0.25 |
| TPCY | ≤ 0.25 |
| YKNT | ≤ 0.25 |
| AGKD | ≤ 0.25 |
| WVYG | ≤ 0.25 |
| IALS | 0.797 |
